Experimental data taken from a collection of fitness landscapes (doi:10.1038/s41467-024-54723-y).
Whole data set: some 18,000 sequences, median “TetR repression strength (sort-seq, GFP reporter)” near 0.23, cut for the highest 2% near 0.68. The list shows a part of the results.

Each sequence was assayed against TetR (class B, Tn10) (UniProt P04483) (assay: TetR repression strength (sort-seq, GFP reporter) (relative to tetO2 = 1); higher = stronger repression). Conditions: E. coli.
How it was run: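 Escherichia coli SIG10-MAX cells carried a low-copy plasmid library in which eight operator positions were randomized between a constitutive promoter and sfGFP, and TetR was expressed constitutively. After 5 h of growth at 37 °C in LB with 50 µg/mL chloramphenicol, 10^6 cells were FACS-sorted into 13 fluorescence bins, and each bin was Illumina-sequenced. Repression strength was the top bin index plus one minus the read-weighted mean bin, divided by the value for the unaltered operator. Across three independent transformations, only library members with ≥30 reads in every replicate and a CV ≤0.5 were averaged.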

Sequence of UniProt P04483 (P04483 whole entry): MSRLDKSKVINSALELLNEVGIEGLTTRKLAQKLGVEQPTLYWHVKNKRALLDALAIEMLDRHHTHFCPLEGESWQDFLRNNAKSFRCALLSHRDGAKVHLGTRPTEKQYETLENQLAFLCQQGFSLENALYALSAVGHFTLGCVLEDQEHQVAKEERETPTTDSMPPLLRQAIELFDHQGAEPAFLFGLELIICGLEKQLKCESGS

Sequence | TetR repression strength
TCCCGTTAAGTGGGTGAGA | 0.211
TCCCTAGCAGTGCATGAGA | 0.422
TCCCTCGGAGTTTGCGAGA | 0.311
TCCCGGGTAGTGTAGGAGA | 0.284
TCCCGTGTAGTTCTGGAGA | 0.189
TCCCGGTGAGTAGATGAGA | 0.205
TCCCCCGAAGTGGGTGAGA | 0.346
TCCCGGCAAGTTAAGGAGA | 0.242
TCCCTTACAGTTGGTGAGA | 0.36
TCCCGGAGAGTGATCGAGA | 0.304
TCCCCAGTAGTGGTTGAGA | 0.207
TCCCTCAAAGTCCATGAGA | 0.364
TCCCGCCGAGTGGGTGAGA | 0.138
TCCCGGACAGTTGGTGAGA | 0.421
TCCCATTGAGTGGCGGAGA | 0.0422
TCCCGAACAGTTGCAGAGA | 0.181
TCCCTTAAAGTCCCAGAGA | 0.302
TCCCCGGGAGTAAGGGAGA | 0.23
TCCCGCAGAGTGTGAGAGA | 0.124
TCCCCCTAAGTGTCTGAGA | 0.247
TCCCTGCGAGTGTATGAGA | 0.14
TCCCTCAGAGTGAGGGAGA | 0.359
TCCCTGCGAGTCGCGGAGA | 0.207
TCCCTGGCAGTACTGGAGA | 0.187
TCCCCAATAGTCCTCGAGA | 0.409
TCCCCGCGAGTCCATGAGA | 0.268

Sequence | TetR repression strength
TCCCGTTGAGTACTTGAGA | 0.162
TCCCCGTCAGTGGGTGAGA | 0.276
TCCCTTTGAGTTTGCGAGA | 0.293
TCCCAGCGAGTGTGTGAGA | 0.102
TCCCAAGTAGTGGGGGAGA | 0.133
TCCCTCCGAGTGGCTGAGA | 0.17
TCCCGAGTAGTGGTTGAGA | 0.303
TCCCTTGGAGTGCGTGAGA | 0.0933
TCCCCGCTAGTGGTAGAGA | 0.305
TCCCCTATAGTATGTGAGA | 0.112
TCCCTGAGAGTGGCCGAGA | 0.278
TCCCCCCGAGTGCGCGAGA | 0.464
TCCCGCGAAGTACGGGAGA | 0.309
TCCCGGGCAGTAGGGGAGA | 0.251
TCCCAAAGAGTATGAGAGA | 0.213
TCCCAGATAGTCCCTGAGA | 0.479
TCCCGCGAAGTGCGCGAGA | 0.0393
TCCCAGTCAGTTGGAGAGA | 0.258
TCCCGGTGAGTGTCAGAGA | 0.326
TCCCTTAGAGTCGCTGAGA | 0.293
TCCCGAGTAGTTAAGGAGA | 0.21
TCCCCGGTAGTAGTTGAGA | 0.217
TCCCATCGAGTACATGAGA | 0.286
TCCCTATCAGTGGACGAGA | 0.574
TCCCCACTAGTTCAGGAGA | 0.288
TCCCAACAAGTATGCGAGA | 0.235

Sequence | TetR repression strength
TCCCCGCAAGTAGCAGAGA | 0.189
TCCCCTCCAGTTCCCGAGA | 0.256
TCCCCCGGAGTCGGCGAGA | 0.0518
TCCCTATGAGTCAGGGAGA | 0.13
TCCCGTTGAGTGTCCGAGA | 0.224
TCCCCACGAGTTGAAGAGA | 0.352
TCCCGGCCAGTCAAAGAGA | 0.406
TCCCAAACAGTGGGAGAGA | 0.209
TCCCCGTAAGTGGTGGAGA | 0.0297
TCCCTAGCAGTGAGAGAGA | 0.376
TCCCTCTTAGTGGAGGAGA | 0.0194
TCCCGGCGAGTCTGGGAGA | 0.192
TCCCTTTGAGTTTTTGAGA | 0.506
TCCCTCCTAGTGTGCGAGA | 0.101
TCCCAGTTAGTGTGTGAGA | 0.145
TCCCAGTAAGTTAAAGAGA | 0.328
TCCCGTCTAGTGCAGGAGA | 0.181
TCCCCCAAAGTTGAAGAGA | 0.164
TCCCCGCGAGTTGGAGAGA | 0.257
TCCCTACCAGTGGGTGAGA | 0.0969
TCCCTTTGAGTAGTTGAGA | 0.193
TCCCATGTAGTCAGAGAGA | 0.225
TCCCCTCCAGTTCTTGAGA | 0.421
TCCCGTTGAGTATTAGAGA | 0.0898
TCCCTGGGAGTTACGGAGA | 0.204
TCCCTTCAAGTCCTTGAGA | 0.32

Sequence | TetR repression strength
TCCCGTTGAGTCTCAGAGA | 0.284
TCCCTTCCAGTAACCGAGA | 0.352
TCCCTTTTAGTGGGAGAGA | 0.112
TCCCCAGCAGTGGGCGAGA | 0.125
TCCCGTCAAGTATGGGAGA | 0.415
TCCCTAACAGTGTGTGAGA | 0.206
TCCCGGGCAGTCCTCGAGA | 0.909
TCCCTTCTAGTCATCGAGA | 0.444
TCCCGCAGAGTAGGGGAGA | 0.254
TCCCAAATAGTGTTGGAGA | 0.248
TCCCATGAAGTGTGGGAGA | 0.236
TCCCAGTGAGTGACTGAGA | 0.181
TCCCTCGCAGTGGACGAGA | 0.14
TCCCTATCAGTCCCAGAGA | 1.18
TCCCGATGAGTTGAAGAGA | 0.225
TCCCTAGAAGTCCTAGAGA | 0.0793
TCCCGGGCAGTTTCTGAGA | 0.0699
TCCCCATAAGTCGCGGAGA | 0.0596
TCCCTCTAAGTTGAGGAGA | 0.0793
TCCCCAGGAGTAGTAGAGA | 0.272
TCCCTATCAGTCCATGAGA | 0.348
TCCCAGTGAGTGGTGGAGA | 0.172
TCCCATGAAGTTTTAGAGA | 0.156
TCCCATAAAGTGGGGGAGA | 0.152
TCCCGCATAGTCTGGGAGA | 0.0977
TCCCCCACAGTGAGCGAGA | 0.408

Sequence | TetR repression strength
TCCCGTAGAGTGTAGGAGA | 0.251
TCCCCTTGAGTGTAAGAGA | 0.558
TCCCTGAAAGTGGGAGAGA | 0.368
TCCCGGGGAGTAGAGGAGA | 0.249
TCCCAAACAGTTTCCGAGA | 0.477
TCCCTGCCAGTACTTGAGA | 0.0401
TCCCTTACAGTTTCGGAGA | 0.0478
TCCCAACAAGTAGTCGAGA | 0.154
TCCCGAATAGTCTCAGAGA | 0.185
TCCCCAGGAGTGTGGGAGA | 0.201
TCCCAGAAAGTCTAGGAGA | 0.157
TCCCTTACAGTAACGGAGA | 0
TCCCCAACAGTTAGGGAGA | 0.218
TCCCGGAGAGTGATTGAGA | 0.272
TCCCAGCCAGTAGTGGAGA | 0.307
TCCCTTGGAGTGAAGGAGA | 0.194
TCCCGGATAGTGATAGAGA | 0.29
TCCCGTTCAGTAGAGGAGA | 0.219
TCCCAACGAGTTTAAGAGA | 0.344
TCCCGGGGAGTGCTCGAGA | 0.207
TCCCAGCAAGTGGTGGAGA | 0.241
TCCCTTTGAGTTCCGGAGA | 0.098
TCCCCATTAGTCTCGGAGA | 0.192
TCCCGAATAGTGTTTGAGA | 0.154
TCCCTGAAAGTCCGGGAGA | 0.122
TCCCTTATAGTTGCAGAGA | 0.262
